# ± gives the standard deviation of the averaged measurements. Whole data set: some 33,000 sequences, median “E-score (dimensionless, -0.5 to 0.5)” near -0.049, cut for the highest 2% near 0.37. Some of the results follow.
# System: T1, PmTbr T-box DNA-binding domain (GST fusion)
# T1 sequence: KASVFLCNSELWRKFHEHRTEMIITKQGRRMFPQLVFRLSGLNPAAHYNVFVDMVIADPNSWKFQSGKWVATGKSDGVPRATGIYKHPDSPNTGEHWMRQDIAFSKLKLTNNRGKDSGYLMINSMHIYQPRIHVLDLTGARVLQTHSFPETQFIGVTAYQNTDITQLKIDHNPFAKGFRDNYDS
# Assay: PBM E-score of 8-mer (E-score (dimensionless, -0.5 to 0.5)); Tbr is Tbrain of the sea star Patiria miniata (Pm) or the sea urchin Strongylocentrotus purpuratus (Sp); higher = stronger binding preference; most listed sequences are background and not binding sites
# Details: the construct has about 5 more residues each side
# Method in brief: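 Universal Agilent oligonucleotide arrays, made double-stranded by primer extension, were incubated with 200 nM GST-fused Tbr T-box DNA-binding domain in PBS (pH 7.5). The protein was expressed in BL21 E. coli at 20 °C and purified by glutathione affinity chromatography. After scanning and quantification, the Universal PBM Analysis Suite assigned an enrichment E-score to each ungapped 8-mer, averaged over duplicate arrays.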
row,Sequence,PBM E-score of 8-mer
1,GTTGGCAA,0.276 ± 0.03
2,AGATCAAG,-0.285 ± 0.047
3,AAGGTTCG,-0.0528 ± 0.047
4,GCCTAACC,-0.288 ± 0.061
5,TATGTGAA,0.11 ± 0.1
6,CAAAGTCC,-0.084 ± 0.003
7,AAGAGTGC,0.0437 ± 0.026
8,ACAAGTAT,0.112 ± 0.028
9,TCCCGAAA,-0.153 ± 0.024
10,AATCGCCA,0.166 ± 0.016
11,AGTGGTAT,0.056 ± 0.014
12,TCAAGGAA,-0.191 ± 0.017
13,ATGCTCCG,-0.0913 ± 0.00038
14,ACCACCCA,-0.122 ± 0.11
15,AGACTTAC,-0.184 ± 0.053
16,AATTTGGT,-0.0576 ± 0.041
17,ACAGGTAA,0.0959 ± 0.047
18,AATGGATG,-0.0722 ± 0.11
19,AATGTTTC,-0.221 ± 0.017
20,ACACAACA,0.21 ± 0.01
21,GTTCTGGA,-0.117 ± 0.11
22,GATATAAC,0.115 ± 0.0035

row,Sequence,PBM E-score of 8-mer
1,GTGGGGGA,0.0777 ± 0.08
2,CTTCCCAA,0.157 ± 0.03
3,ATCACCCG,0.194 ± 0.02
4,CGATTGGC,0.0475 ± 0.026
5,CTCCAGCC,-0.247 ± 0.00034
6,CTCGTCCC,-0.303 ± 0.016
7,ATTATTTG,-0.0902 ± 0.057
8,ACCTTTCG,0.171 ± 0.008
9,GAGGCTGA,-0.152 ± 0.01
10,ATATCTCA,0.0934 ± 0.046
11,GGCGAGTA,-0.019 ± 0.013
12,GAGTCCGA,-0.228 ± 0.032
13,GCCTAAGA,-0.135 ± 0.042
14,GTGACTAA,0.224 ± 0.02
15,ACCCACGA,0.042 ± 0.12
16,TACGAGTA,-0.183 ± 0.0048
17,TCTCCTCA,-0.0737 ± 0.037
18,AAGTAAGC,0.0712 ± 0.06
19,CCGAGGTC,-0.0467 ± 0.058
20,ATCCTTAA,-0.266 ± 0.031
21,GGAGTCTA,-0.318 ± 0.014
22,TTGACCAA,-0.127 ± 0.099

row,Sequence,PBM E-score of 8-mer
1,ACAACCTA,0.0189 ± 0.02
2,ACATGGCC,-0.15 ± 0.062
3,CGAAGGAG,-0.0485 ± 0.017
4,ACGAGTCG,0.143 ± 0.015
5,CGTAACAA,0.00875 ± 0.0017
6,ATAAACTA,-0.107 ± 0.0083
7,ACGTCCGC,0.142 ± 0.043
8,ACTCGAAA,-0.00348 ± 0.018
9,TACATCTA,-0.0798 ± 0.087
10,GAGAGACC,-0.119 ± 0.04
11,ACAACCGT,0.102 ± 0.02
12,GTCTCTGA,-0.238 ± 0.017
13,CGCTTTAA,-0.165 ± 0.076
14,AATGTCAC,0.329 ± 0.034
15,ATTCTGTC,0.0857 ± 0.08
16,ACATAGCT,-0.0291 ± 0.082
17,GTTGTCAA,0.3528 ± 0.0033
18,CCCGGTCA,-0.0613 ± 0.056
19,GCACATGA,0.0847 ± 0.099
20,GGAATACC,-0.15 ± 0.066
21,AGAAAACC,-0.00752 ± 0.017
22,GCTATTAA,0.158 ± 0.051

row,Sequence,PBM E-score of 8-mer
1,TCACTTAA,0.241 ± 0.022
2,ATATTGAC,0.103 ± 0.015
3,AAGCCCCT,-0.25 ± 0.033
4,ACCATTAG,0.0378 ± 0.1
5,GTAATACA,-0.163 ± 0.0071
6,CGACGTTA,-0.0414 ± 0.035
7,ACTACGGC,0.0176 ± 0.0086
8,CAAGCGGC,0.03 ± 0.015
9,GACGCGGC,0.0886 ± 0.056
10,ACTTGACA,0.349 ± 0.0048
11,CTCTTTAC,-0.09 ± 0.098
12,CACTCTTA,0.193 ± 0.057
13,CTTGAAAC,0.0357 ± 0.059
14,GCCCGGGC,-0.124 ± 0.051
15,GCGTGTCA,0.276 ± 0.034
16,ACTCCAGA,-0.0523 ± 0.079
17,CTTCGACA,0.164 ± 0.067
18,AGAACGAT,-0.27 ± 0.068
19,ACTAGTAG,0.059 ± 0.1
20,ATGCGCAC,-0.0585 ± 0.018
21,CGGAATAC,0.00666 ± 0.033
22,ATCGTACA,-0.0228 ± 0.034

row,Sequence,PBM E-score of 8-mer
1,AGGTCTCA,-0.0961 ± 0.054
2,CATCCTAG,-0.0222 ± 0.02
3,AGGAAGAG,-0.37 ± 0.021
4,ACACTCTA,0.279 ± 0.016
5,ACGGAGAG,-0.13 ± 0.058
6,TCCTCACA,0.3327 ± 0.0011
7,TACTAAAA,-0.025 ± 0.085
8,ACCCGTCT,0.00649 ± 0.036
9,AAATGTCA,0.111 ± 0.0049
10,GAGAGTGA,0.212 ± 0.033
11,CCGAACGA,-0.0621 ± 0.037
12,GGGAAACA,0.0209 ± 0.029
13,AATGTATG,-0.194 ± 0.021
14,ATTTTTTA,-0.175 ± 0.11
15,AGCCCGCG,-0.183 ± 0.056
16,TGTCGGAA,0.195 ± 0.027
17,GATCGCCA,0.127 ± 0.042
18,CATCCATG,-0.0998 ± 0.05
19,GACCGGAA,-0.129 ± 0.022
20,CAAACGAC,-0.00553 ± 0.072
21,AGGGCGAA,-0.0232 ± 0.096

# — the supplement of paper PMC4166925
